Measured values taken from patent US20160340422A1.

B1: Bifunctional fusion protein D (protein)
heavy: QVQLKESGPGLVQPSQTLSLTCTVSGFSLTNYYVHWVRQPPGKGLEWMGGVWNDGDTSYNSVLRSRLSITRDTSKSQVLLKMSSLQTEDTATYYCAREGREGFVGYYVMDAWGPGASVTVSSAKTTAPSVYPLAPVCGDTTGSSVTLGCLVKGYFPEPVTLTWNSGSLSSGVHTFPAVLQSDLYTLSSSVTVTSSTWPSQSITCNVAHPASSTKVDKKIEPRGPTIKPCPPCKCPAPNLLGGPSVFIFPPKIKDVLMISLSPIVTCVVVDVSEDDPDVQISWFVNNVEVHTAQTQTHREDYNSTLRVVSALPIQHQDWMSGKEFKCKVNNKDLPAPIERTISKPKGSVRAPQVYVLPPPEEEMTKKQVTLTCMVTDFMPEDIYVEWTNNGKTELNYKNTEPVLDSDGSYFMYSKLRVEKKNWVERNSYSCSVVHEGLHNHHTTKSFSRTPGKGGGGSGGGGSGGGGSGGGGSGGG[about 120 residues skipped]
light: DIQMTQSPSFLSASVGERVTLSCKASQNINKYLDWFQQKLGEAPKLLIYNADNLHTGIPSRFSGSGSFSDFILTISSLQPEDDATYFCLQRESWPYTFGAGTKLELKRADAAPTVSIFPPSSEQLTSGGASVVCFLNNFYPKDINVKWKIDGSERQNGVLNSWTDQDSKDSTYSMSSTLTLTKDEYERHNSYTCEATHKTSTSPIVKSFNRNEC
B2: Bifunctional fusion protein E (protein)
heavy: QVQLKESGPGLVQPSQTLSLTCTVSGFSLTNYYVHWVRQPPGKGLEWMGGVWNDGDTSYNSVLRSRLSITRDTSKSQVLLKMSSLQTEDTATYYCAREGREGFVGYYVMDAWGPGASVTVSSAKTTAPSVYPLAPVCGDTTGSSVTLGCLVKGYFPEPVTLTWNSGSLSSGVHTFPAVLQSDLYTLSSSVTVTSSTWPSQSITCNVAHPASSTKVDKKIEPRGPTIKPCPPCKCPAPNLLGGPSVFIFPPKIKDVLMISLSPIVTCVVVDVSEDDPDVQISWFVNNVEVHTAQTQTHREDYNSTLRVVSALPIQHQDWMSGKEFKCKVNNKDLPAPIERTISKPKGSVRAPQVYVLPPPEEEMTKKQVTLTCMVTDFMPEDIYVEWTNNGKTELNYKNTEPVLDSDGSYFMYSKLRVEKKNWVERNSYSCSVVHEGLHNHHTTKSFSRTPGK
light: DIQMTQSPSFLSASVGERVTLSCKASQNINKYLDWFQQKLGEAPKLLIYNADNLHTGIPSRFSGSGSFSDFILTISSLQPEDDATYFCLQRESWPYTFGAGTKLELKRADAAPTVSIFPPSSEQLTSGGASVVCFLNNFYPKDINVKWKIDGSERQNGVLNSWTDQDSKDSTYSMSSTLTLTKDEYERHNSYTCEATHKTSTSPIVKSFNRNECGGGGSGGGGSGGGGSGGGGSGGG[about 120 residues skipped]

Molecular target: B7 molecule on Raji cells
Assay: flow cytometry on Raji cells, sample at 0.5 nM, FITC anti-mouse IgG

| Binder | Mean fluorescence intensity (MFI) |
| --- | --- |
| B1 | 9 MFI |
| B2 | 3 MFI |
